Measurements: the supplement of paper PMC10126150
Values marked as one replicate rest on one cluster of the flow cell; about a third of the high ones do not repeat.

test system: ATP; experiment: switch fluorescence ratio, 500 uM ATP over buffer (Cy3 cluster intensity, sum of 5 cycles each) (fold (ratio)); higher = stronger signal-on switching upon ATP binding; sequences stand for … in TCGTCGGCAGCGTCAGATGTGTATAAGAGACAGTTTTTTTTTTTTTTTTTTTTTTTTT…TC; conditions: aptamer strand: ATP DNA aptamer (quencher-CACCTGGGGGAGTATTGCGGAGGAAGG + anchor), 100 nM annealed; ATP concentration: 500 uM; one replicate
Summary of the method: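 After annealing to 100 nM quencher-labelled ATP aptamer, Cy3-labelled switching-strand clusters on a modified Illumina MiSeq flow-cell were imaged in selection buffer. A second image followed after 15 min with 500 uM ATP at 22 °C, and five such buffer/ATP cycles were done, each separated by NaOH stripping and re-annealing. The fluorescence ratio, averaged per switch-domain sequence, is summed target-cycle over summed buffer-cycle Cy3 intensity per cluster, with clusters outside 100-1000 RFU excluded.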
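Note: ATP exposure 15 min at 22 °C before imaging.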

Row | Sequence | switch fluorescence ratio
1 | TCTGTGCATT | 1.25
2 | CAGCTAGTCG | 1.01
3 | TTCAGTTA | 1
4 | TTACCCCGGG | 2.63
5 | TGCAGAACAG | 1.03
6 | AAAGACTAAG | 0.96
7 | GCTGGTACGG | 1.04
8 | GAGGCCGGTT | 1.04
9 | ATGGAAGATT | 0.973
10 | GCACTATCAG | 0.962
11 | GCCCTGGTTT | 1.05
12 | TATCAATTTC | 0.99
13 | TCTGGGCTAG | 1.02
14 | AGTGAGACT | 1.01
15 | CACCCGCTAT | 5.04
16 | TATTTACTAC | 1.11
17 | TATAATAACA | 0.986
18 | GTCGGAGGTA | 1.04
19 | CGAACCGATG | 1.1
20 | CTTAAAACAA | 1.03
21 | TTTGTACGGC | 1.01
22 | GCAATCAGGT | 1.16
23 | TTCTCACGCT | 1.17

Row | Sequence | switch fluorescence ratio
24 | TCCTGTAATG | 1.02
25 | AGTTAATCAG | 0.998
26 | CCAGATCAGG | 1.01
27 | TCCGGAGGAA | 1.62
28 | TGATCGGGAA | 1.05
29 | CGTTTTATGA | 0.99
30 | TAAGACGGAT | 0.997
31 | AATTTTAAAA | 1.05
32 | TTGTGGGCA | 1.02
33 | ACTAGCGCGA | 1.29
34 | CAGGAAATGA | 1.02
35 | TTATTGGATA | 0.967
36 | TGTGCCCA | 1.03
37 | CTAAGCACGG | 1.14
38 | AATGGAAGGA | 0.965
39 | CACACCCTTT | 1.09
40 | CAACAAAACG | 1.03
41 | AGGCGCAAGT | 1.02
42 | AGACAGATTT | 1.01
43 | AGCCTTAGTT | 0.975
44 | AACGTGAATA | 1.08
45 | CGCTTGGACG | 0.979
46 | TCAAGATGAA | 0.955

Row | Sequence | switch fluorescence ratio
47 | GGTAGACTCG | 1.01
48 | ACGATTACAT | 1.14
49 | TTGCATAAGT | 1.12
50 | CATATAAGGC | 0.865
51 | AAGGATGCCT | 1.02
52 | CAGCGCTGTG | 0.999
53 | CACCGTGGCA | 0.996
54 | TCCCAGATGG | 1.1
55 | GGCGTACAGG | 1.01
56 | AGTGTTAACT | 1.01
57 | GAAGGGTAG | 0.995
58 | CAGAGTTGCG | 1
59 | CTCCCGGGC | 1.41
60 | TTGTCTTTGA | 1.04
61 | ATGTGACCTA | 1.01
62 | CAGAGTCAGT | 0.963
63 | CTAGGGACCG | 1.07
64 | CCAAATGTAG | 0.989
65 | TCTCTAAACG | 1.06
66 | TTAGATGAGT | 0.978
67 | TCAGGGCAAA | 1.02
68 | TGGTAAAGCC | 1.02
69 | CGGGGATGGT | 1.02

Row | Sequence | switch fluorescence ratio
70 | AGGCCCGGCG | 1.03
71 | CTTTCCCTGT | 0.991
72 | TATATATTAG | 0.986
73 | CGAGGGTCAC | 1.03
74 | AATTCGGCCG | 1.03
75 | ATATTTACAT | 1.03
76 | TCTAAAAAAT | 0.947
77 | CCAGTGTCCA | 1.02
78 | GGTCCTGGAG | 1.01
79 | ATGAGAAGAT | 1.04
80 | AGGTAGTCAC | 1.03
81 | CATAGGGGTG | 1.03
82 | GAGTGGTAAA | 1.05
83 | TTTTATCCTG | 0.972
84 | CTATAATCGA | 0.934
85 | AACGTGTT | 0.995
86 | GTGCTTAGCC | 0.967
87 | CAATGAGAGG | 1.01
88 | TGGGTTGTAG | 0.983
89 | CGATCGAATT | 1.01
90 | ACGAGATAAA | 0.996
91 | CGCCTATTCG | 0.98
92 | ATAAGAGTCC | 0.919

Row | Sequence | switch fluorescence ratio
93 | CACGCGGGAA | 1
94 | GAATTTCG | 1.02
95 | TCTACAGAAC | 1.04
96 | GTTTTCGTCC | 0.983
97 | GTAATTCACG | 1.03
98 | GGGCATGAGG | 0.992
99 | AATTTTACC | 1.02
100 | TACGTTTGAG | 1
101 | ATGTCGTCTA | 0.999
102 | TACACTCTAG | 0.998
103 | CTATGTTGAA | 0.998
104 | CAAGATTGGC | 0.983
105 | GAGGAACAGA | 0.98
106 | TACAACGGCA | 1.04
107 | GCTTTCGTGT | 0.985
108 | ATAGAAGTAC | 1.34
109 | CTTGAGAGAT | 0.994
110 | ATGATGGTC | 0.992
111 | CCACGCTGCG | 0.946
112 | AAGCCATTG | 1.02
113 | GCCTAAGTTC | 1.01
114 | GGAAGTGCGT | 0.994
115 | TATACGTACC | 1.64

Row | Sequence | switch fluorescence ratio
116 | TAAAGAAC | 0.999
117 | TAGAATATCG | 0.964
118 | CTTATTCACG | 1
119 | AAAGTCTACG | 1.03
120 | CATTTAAAGG | 0.969
121 | CCGGTGCTTG | 1.09
122 | GAGAATACGG | 1.13
123 | ATACTGCTGA | 1
124 | CGGGTCCTTG | 1.02
125 | TTTGTGTCG | 1.01
126 | TTGGGCGATA | 0.968
127 | ACCTTGGGAC | 1.02
128 | CTTAGAGGGC | 0.971
129 | TATTATACCC | 1.06
130 | TGAATCTAGC | 0.978
131 | ATGGTCGACA | 0.944
132 | AATGGCCTAG | 1
133 | ATAACTCTGT | 0.994
134 | TCACGGACTT | 1.4
135 | CATTCTTACT | 0.991
136 | TCTAATACAT | 1.01
137 | CCAACTTATG | 1
138 | GAACCCGGGC | 1.01

Row | Sequence | switch fluorescence ratio
139 | GTCACCCGGG | 1.07
140 | GTTGTGGATT | 0.993
141 | GCCCAGGGCA | 1.19
142 | AAGTCCGCCA | 1.74
143 | CGCCGACGGA | 1.06
144 | GGAACGTGCA | 0.918
145 | CATTCCAGG | 1.38
146 | AAATCGCCGG | 1.03
147 | AGATTTTGGA | 0.979
148 | CAGAACGGTG | 1.07
149 | CTCTAGTGTG | 1.01
150 | TTCGGTGCAG | 0.945
151 | TTTAGCCTAA | 0.94
152 | AGAAAGAACA | 1.04
153 | TGTCTTTTAT | 0.994
154 | TTTACTTAAC | 1.12
155 | TTGTCGAATT | 0.985
156 | CTGTTCCTGT | 1.12
157 | ACAGCCTGAA | 0.985
